Reference: a compilation of properties of binary mixtures (doi:10.1007/s10953-020-00968-2)
The densities may have been worked out from excess volumes.

Assay: xn = mol fraction of the nth substance listed
Settings: 101 kPa

O + CS(=O)(=O)[O-].C[N+](C)(CCO)CCO
Settings	mass density [kg/m3]
313.15 K, x2 = 0	992.3

CS(=O)(=O)[O-].C[N+](C)(CCO)CCO + O
mass density [kg/m3]
Settings	x1 = 0.0989	x1 = 0.1991	x1 = 0.2989	x1 = 0.3971	x1 = 0.4797	x1 = 0.5983	x1 = 0.6984	x1 = 0.7942	x1 = 0.8928	x1 = 1
298.15 K	1158.4	–	1244.9	1261.6	1271.1	1280.7	1286.5	1291	1294.6	1298.2
303.15 K	1155.8	1213.4	–	1258.5	1268	1277.6	–	1287.9	1291.4	1295
308.15 K	1153.2	1210.6	1238.9	1255.5	1264.9	1274.5	1280.2	1284.7	1288.2	1291.7
313.15 K	1150.6	1207.8	1236	1252.5	–	1271.4	–	1281.6	1285.1	1288.6
318.15 K	1147.9	1204.9	–	1249.5	–	1268.1	1274	1278.5	1282	–
323.15 K	1145.1	–	1230.1	1246.4	–	1265	–	1275.4	1278.8	–
